Source: the supplement of paper PMC4604168 (melanoma cell lines)
This is one part of the list. Most values come without repeats; read them as rough.

Tested on: IST-MEL1
Test: cell count relative to DMSO control; melanoma cells; higher = more viable cells
Conditions: library dose: low library concentration; 72 h
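Further: cell number obtained by counting DAPI-stained nuclei in high-throughput microscope images with image analysis software, screen run in 1,536-well plates.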

Question: `CC(C)(C)c1cnc(CSc2cnc(NC(=O)C3CCNCC3)s2)o1` + CN(NC(=O)CC(=O)NN(C)C(=S)c1ccccc1)C(=S)c1ccccc1 [STA4783] (first compound 0.01 µM, partner dose 0.006 µM) was tested. Which cell count did it give?
Answer: 80.2%

Question: With `Cc1ccc(NC(=O)c2cccc(N(C)C)c2)cc1NC(=O)c1ccc(O)cc1` + Cn1cncc1[C@@](N)(c1ccc(Cl)cc1)c1ccc2c(c1)c(-c1cccc(Cl)c1)cc(=O)n2C [tipifarnib] (first compound 2 µM, partner dose 0.01 µM) as the molecule, how does the cell count read?
Answer: 95.4%

Question: For `Cc1ccc(NC(=O)c2cccc(N(C)C)c2)cc1NC(=O)c1ccc(O)cc1` + NCC(=O)Nc1ccc(-n2nc(C(F)(F)F)cc2-c2ccc3c(ccc4ccccc43)c2)cc1 [OSU03012] (first compound 2 µM, partner dose 1 µM), which cell count is on record?
Answer: 92.1%

Question: How did the cell count turn out when `CCCCCCCCc1ccc(CCC(N)(CO)CO)cc1` [fingolimod] + CN(NC(=O)CC(=O)NN(C)C(=S)c1ccccc1)C(=S)c1ccccc1 [STA4783] (first compound 2 µM, partner dose 0.006 µM) was run?
Answer: 63.2%

Question: `NC(=O)c1ccc(N(C(N)=O)c2c(F)cccc2F)nc1-c1ccc(F)cc1F` + COc1cc2c(Oc3ccc4[nH]c(C)cc4c3F)ncnc2cc1OCCCN1CCCC1 [cediranib] (first compound 0.4 µM, partner dose 0.4 µM) was tested. Which cell count did it give?
Answer: 97.5%

Question: `NC(=O)c1ccc(N(C(N)=O)c2c(F)cccc2F)nc1-c1ccc(F)cc1F` + O=C(Nc1cccc(Cl)c1)Nc1ncc(CCNc2ncnc3ccsc23)s1 [SNS314] (first compound 0.4 µM, partner dose 0.0008 µM) was tested. Which cell count did it give?
Answer: 99%

Question: How did the cell count turn out when `CC(C)(C)c1cnc(CSc2cnc(NC(=O)C3CCNCC3)s2)o1` + NC(=O)Nc1cc(-c2cccc(F)c2)sc1C(=O)N[C@H]1CCCNC1 [AZD7762] (first compound 0.01 µM, partner dose 0.02 µM) was run?
Answer: 96.5%

Question: With `CN(NC(=O)CC(=O)NN(C)C(=S)c1ccccc1)C(=S)c1ccccc1` + COc1cc2c(Oc3ccc4[nH]c(C)cc4c3F)ncnc2cc1OCCCN1CCCC1 [cediranib] (first compound 0.006 µM, partner dose 0.4 µM) as the molecule, how does the cell count read?
Answer: 86%

Question: Which cell count does the source give for `CCCCCCCCc1ccc(CCC(N)(CO)CO)cc1` [fingolimod] + C[C@@H]1CCN(C(=O)CC#N)C[C@@H]1N(C)c1ncnc2[nH]ccc12 [CP690550] (first compound 2 µM, partner dose 1 µM) here?
Answer: 94.3%

Question: For `CCCCCCCCc1ccc(CCC(N)(CO)CO)cc1` [fingolimod] + COc1cc2c(Oc3ccc4[nH]c(C)cc4c3F)ncnc2cc1OCCCN1CCCC1 [cediranib] (first compound 2 µM, partner dose 0.4 µM), which cell count is on record?
Answer: 99.4%

Question: For `CC(C)(C)c1cnc(CSc2cnc(NC(=O)C3CCNCC3)s2)o1` + NCC(=O)Nc1ccc(-n2nc(C(F)(F)F)cc2-c2ccc3c(ccc4ccccc43)c2)cc1 [OSU03012] (first compound 0.01 µM, partner dose 1 µM), which cell count is on record?
Answer: 101%

Question: Which cell count does the source give for `CCCCCCCCc1ccc(CCC(N)(CO)CO)cc1` [fingolimod] + NCC(=O)Nc1ccc(-n2nc(C(F)(F)F)cc2-c2ccc3c(ccc4ccccc43)c2)cc1 [OSU03012] (first compound 2 µM, partner dose 1 µM) here?
Answer: 98.6%

Question: `CCCCCCCCc1ccc(CCC(N)(CO)CO)cc1` [fingolimod] + NC(=O)Nc1cc(-c2cccc(F)c2)sc1C(=O)N[C@H]1CCCNC1 [AZD7762] (first compound 2 µM, partner dose 0.02 µM) was tested. Which cell count did it give?
Answer: 125%

Question: Which cell count does the source give for `CCCCCCCCc1ccc(CCC(N)(CO)CO)cc1` [fingolimod] + CO[C@@H]1[C@H](N(C)C(=O)c2ccccc2)C[C@H]2O[C@]1(C)n1c3ccccc3c3c4c(c5c6ccccc6n2c5c31)C(=O)NC4 [Midostaurin] (first compound 2 µM, partner dose 0.08 µM) here?
Answer: 101%

Question: Which cell count does the source give for `Cc1ccc(NC(=O)c2cccc(N(C)C)c2)cc1NC(=O)c1ccc(O)cc1` + CN(C)S(=O)(=O)c1ccc2c(c1)/C(=C/c1cc3c([nH]1)CCCC3)C(=O)N2 [SU6656] (first compound 2 µM, partner dose 0.4 µM) here?
Answer: 91.5%

Question: `NC(=O)c1ccc(N(C(N)=O)c2c(F)cccc2F)nc1-c1ccc(F)cc1F` + OCCn1cc(-c2cnc3nnn(Cc4ccc5ncccc5c4)c3n2)cn1 [PF04217903] (first compound 0.4 µM, partner dose 1 µM) was tested. Which cell count did it give?
Answer: 103%

Question: For `CC(C)(C)c1cnc(CSc2cnc(NC(=O)C3CCNCC3)s2)o1` + Cc1cc(N2CCOCC2)cc2[nH]c(-c3c(NC[C@@H](O)c4cccc(Cl)c4)cc[nH]c3=O)nc12 [BMS536924] (first compound 0.01 µM, partner dose 0.2 µM), which cell count is on record?
Answer: 99.3%

Question: `NC(=O)c1ccc(N(C(N)=O)c2c(F)cccc2F)nc1-c1ccc(F)cc1F` + NCC(=O)Nc1ccc(-n2nc(C(F)(F)F)cc2-c2ccc3c(ccc4ccccc43)c2)cc1 [OSU03012] (first compound 0.4 µM, partner dose 1 µM) was tested. Which cell count did it give?
Answer: 102%
